The list shows a part of the results. Sequences were assembled here from the parent chain. Values near 0.05 are background.
B1: TEV protease; numbered along this chain (parent)
chain: MGESLFKGPRDYNPISSSICHLTNESDGHTTSLYGIGFGPFIITNKHLFRRNNGTLVVQSLHGVFKVKDTTTLQQHLVDGRDMIIIRMPKDFPPFPQKLKFREPQREERICLVTTNFQTKSMSSMVSDTSCTFPSGDGIFWKHWIQTKDGQCGSPLVSTRDGFIVGIHSASNFTNTNNYFTSVPKNFMELLTNQEAQQWVSGWRLNADSVLWGGHKVFMVKPEEPFQPVKEATQL

Variants of: B1
Experiment: raw area under fraction-flipped curve 0-4 h after induction (AUC4h, not background-subtracted), DNA-recorder readout of cleavage of the substrate (dimensionless); higher = more cleavage of the substrate by the protease variant
Conditions: temperature: 34 °C; time window: 0-4 h after rhamnose induction
Experimental: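 In vivo DNA recorder in E. coli TOP10(DE3) ΔrhaA at 34 °C. Each TEVp single-site mutant (parent TEVp 0) is paired with a single-site variant of the 7-mer TEVs (canonical ENLYFQ|S). The substrate sits between flexible linkers in a Bxb1-sfGFP-TEVs-SsrA fusion, so cleavage stabilises Bxb1 and speeds flipping of a recombination array, read by NGS. The value is the raw area under the fraction-flipped curve over 0-4 h after rhamnose induction (AUC4h), with ≥20 reads per time point. It is not background-subtracted; inactive controls average about 0.047.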
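Also: Bxb1 expression induced with 0.2% (w/v) L-rhamnose at OD600 near 0.5, cultures sampled hourly, flipped fraction per protease–substrate barcode pair counted by paired-end Illumina sequencing.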

Variant	area with substrate ENLYFAS	area with substrate ENLYFCS	area with substrate ENLYFDS	area with substrate ENLYFFS	area with substrate ENLYFGS	area with substrate ENLYFIS	area with substrate ENLYFKS	area with substrate ENLYFLS	area with substrate ENLYFMS	area with substrate ENLYFNS	area with substrate ENLYFPS	area with substrate ENLYFRS	area with substrate ENLYFSS	area with substrate ENLYFTS	area with substrate ENLYFWS	area with substrate ENLYFYS	area with substrate ENLYFES	area with substrate ENLYFVS	area with substrate ENLYFHS
F218E	0.0639	0.0585	0.0785	0.0681	0.0613	0.0611	0.0647	0.0676	0.0631	0.0653	0.0608	0.0568	0.0447	0.0432	0.0656	0.0685	–	–	–
D137W	0.065	0.0767	–	–	–	–	–	–	–	–	–	0.0515	–	–	–	0.0643	0.0674	0.0591	–
Y34T	0.0574	–	0.0655	–	–	–	0.0547	–	0.0737	0.0576	0.0581	0.0526	–	–	0.055	–	–	–	0.0711
D149F	0.0555	0.0631	0.0535	0.0604	–	0.0563	0.0717	0.0698	–	0.0554	0.0556	0.0641	–	0.0453	0.0737	0.0498	0.0726	0.0452	–
Q234E	0.0588	0.0296	0.0579	–	–	0.0644	–	0.0523	0.0613	0.0577	0.0498	–	–	0.0608	0.0633	–	0.0733	0.0775	0.0685
L205C	0.0036	–	–	–	–	–	–	–	0.0649	0.0597	0.0428	–	–	0.0508	0.0643	–	0.0579	–	0.0641
D91G	0.0626	–	–	0.0734	–	0.0436	0.0608	–	0.0782	0.0533	0.0134	0.0617	0.0619	0.0414	0.0653	–	0.0768	–	–
K7C	0.0632	0.0549	–	0.065	–	0.0611	–	–	–	0.0527	–	–	0.0646	–	–	0.0488	0.0632	–	–
V58I	0.0593	–	–	0.0691	–	0.0337	–	0.053	0.0615	–	–	–	0.0726	–	–	–	0.078	–	–
F117Y	0.0716	0.0661	–	0.0587	–	–	0.0576	–	–	0.058	0.06	–	0.0583	0.0661	–	–	–	0.0584	0.0691
W212T	0.068	0.0664	–	0.0619	0.0603	0.0579	–	0.0576	0.0314	–	0.0683	–	0.0711	0.0561	–	0.0581	0.0718	0.0438	–
N177F	0.0541	–	0.0626	0.0661	0.0647	0.0545	–	0.0533	0.0559	–	–	0.0605	–	0.0459	0.0677	0.0631	–	0.006	0.0581
Q194D	0.0553	0.0622	0.0718	0.0609	–	0.0539	0.0525	0.077	0.0635	0.0607	0.062	0.0646	0.0565	0.0625	0.055	0.0538	0.0768	0.0574	0.0706
W203Q	0.0589	–	–	–	–	0.0505	0.0521	–	–	–	0.0523	–	–	–	–	0.0505	0.0534	–	–
F65C	0.0471	–	–	0.0696	0.0603	0.0599	0.0563	0.0474	0.0659	0.0678	–	0.0465	0.0565	0.032	0.0533	0.0596	0.0389	–	0.0658
G166H	0.0514	0.0592	–	–	–	0.0439	0.0436	0.0669	0.0523	0.0634	0.0451	0.0573	0.0485	0.0795	–	–	–	0.0432	–
Q146Y	0.0484	0.0605	–	0.0749	–	0.0604	0.057	–	0.0723	0.0673	0.0578	0.0676	–	0.0465	–	–	0.0563	0	–
H143Y	0.0638	0.0538	–	0.0655	–	0.052	0.0654	0.0303	0.0592	–	0.0427	0.0534	0.0744	–	0.0474	0.0556	–	–	0.0603
R51E	0.0634	0.0442	0.0661	0.0595	–	0.0579	–	–	0.0619	0.0757	0.0526	–	–	–	–	0.0507	0.0643	0.0655	0.0584
L5G	0.056	–	–	0.0572	–	0.0634	–	0.0609	0.098	0.053	0.0528	0.0649	–	0.0476	0.0544	0.0493	–	–	0.0531
V210I	0.0632	0.0553	–	0.0731	–	0.0414	–	–	0.032	–	0.0579	0.0596	0.0616	–	–	–	0.0628	–	–
I84M	0.0394	–	0.0494	0.0636	–	0.0622	–	0.0716	0.0595	0.0632	0.065	0.0493	–	–	–	0.0608	–	0.0583	–
G162Y	0.0592	0.049	–	0.0744	0.0584	0.0465	0.0636	0.0507	0.0538	–	0.0515	0.0604	0.0593	–	–	0.0462	0.0522	0.0729	–
L156P	0.0506	–	–	0.0674	–	0.0579	0.0601	0.0578	0.0656	0.0459	0.0584	–	–	0.051	–	0.0547	0.0553	0.0554	–
A232D	0.0407	0.0846	–	0.0839	–	0.0512	–	–	0.0729	0.0728	0.0611	0.0667	0.0585	0.0693	–	0.065	0.0676	–	0.0419
I167L	0.0621	–	–	0.06	–	0.057	0.0328	–	0.0633	–	0.0613	0.0539	0.0643	–	0.0646	0.0714	0.0541	0.0463	0.055
W212I	0.0457	0.0879	–	0.0793	–	0.06	0.0673	–	0.0787	–	0.0662	0.0851	–	0.0665	0.0432	0.0568	0.0896	–	–
N206V	0.067	0.0567	0.0607	0.0498	–	0.0651	–	0.0491	0.0539	0.0573	–	–	0.0551	0.0572	0.0464	–	0.0676	–	0.0598
N53H	0.0457	0.0646	–	0.0635	0.0785	0.0525	0.0575	0.065	–	–	0.0555	–	0.0491	0.0611	0.0581	0.0468	0.0554	0.059	0.0586
